Measurements as given in the supplement of paper PMC9446081.
Screen size: about 39,000 compounds; about 220 (0.56%) showed activity. This is one part of the list.
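Further: static incubation at 37 °C against the wild-type strain, values averaged over two biological replicates.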

The compounds below were run on Escherichia coli K-12 BW25113 (assay: relative growth (OD600 normalised to plate interquartile mean) (fraction); higher = less growth inhibition, active = 0.2 or less). Settings: 50 µM; LB; incubation time: overnight (16-24 h).
`C[C@H]1CN([C@@H](C)CO)C(=O)Cc2cc(NC(=O)CCC(F)(F)F)ccc2O[C@H]1CN(C)Cc1ccc(-c2ccccc2)cc1` was tested, and the relative growth was inactive: 0.972. `CC[C@@H](C)C(=O)O[C@H]1[C@H](OC(=O)CC(C)C)O[C@H](CO)[C@@H](O)[C@@H]1O` was tested, and the relative growth was inactive: 0.978. `CC(C)CC#Cc1ccc2c(c1)O[C@H](CN(C)C(=O)c1ccncc1)[C@H](C)CN([C@@H](C)CO)S2(=O)=O` was tested, and the relative growth was inactive: 0.982. For `C[C@@H]1CCCCO[C@H](CN(C)Cc2ccc(C(=O)Nc3ccccc3N)cc2)[C@@H](C)CN([C@@H](C)CO)C(=O)c2cc(NS(=O)(=O)c3ccc(Cl)cc3)ccc2O1`, the relative growth was inactive: 0.99. `CNC[C@H]1OCCCC[C@@H](C)Oc2ccc(NC(=O)Nc3cccc4ccccc34)cc2C(=O)N([C@H](C)CO)C[C@@H]1C` was tested, and the relative growth was inactive: 0.978. `C[C@H](C(=O)N(C)C[C@H]1OCc2ccccc2-c2c(n(C)c3ccccc23)C(=O)N([C@H](C)CO)C[C@H]1C)c1ccccc1` was tested, and the relative growth was inactive: 0.983. For `O=C(NO)c1ccc(-c2cn(CC[C@@H]3OC(=O)[C@H](Cc4ccccc4)N4CC5=CC(=O)[C@H](C6CC6)[C@H]5[C@H]34)nn2)s1`, the relative growth was inactive: 0.995. In the case of `Cl.O=c1n(CCCN2CCN(c3cccc(Cl)c3)CC2)nc2ccccn12`, the relative growth is reported as inactive: 1.06. In the case of `COC(=O)c1c2oc(c1C(=O)OC)C(=O)N[C@H](Cc1ccccc1)Cn1cc(nn1)[C@H](Cc1ccccc1)NC(=O)N[C@@H](CO)CC2`, the relative growth is reported as inactive: 0.992. With `Cc1ccc(S(=O)(=O)N(C)C[C@@H]2Oc3ccc(NC(=O)CCN4CCOCC4)cc3C(=O)N([C@@H](C)CO)C[C@@H]2C)cc1` the relative growth was inactive: 0.981. With `Cc1ccc(S(=O)(=O)Nc2ccc3c(c2)C(=O)N([C@@H](C)CO)C[C@H](C)[C@@H](CN(C)Cc2ccc(-c4ccccc4)cc2)O3)cc1` the relative growth was inactive: 0.982. For `C[C@@H]1CCCCO[C@@H](CN(C)Cc2ccc3c(c2)OCO3)[C@@H](C)CN([C@H](C)CO)C(=O)c2cc(NC(=O)Nc3ccc(C(F)(F)F)cc3)ccc2O1`, the relative growth was inactive: 1.01. With `Cc1noc(C)c1NC(=O)N(C)C[C@H]1Oc2ncc(C#CCN(C)C)cc2C(=O)N([C@H](C)CO)C[C@@H]1C` the relative growth was inactive: 1. With `C[C@@H]1CN([C@@H](C)CO)C(=O)c2cc(NC(=O)C3CCCCC3)ccc2O[C@@H](C)CCCCO[C@H]1CN(C)C(=O)Nc1ccc2c(c1)OCO2` the relative growth was inactive: 1.01. With `C[C@H]1CN([C@@H](C)CO)C(=O)c2cccc(NS(=O)(=O)c3cn(C)cn3)c2O[C@@H]1CN(C)C(=O)NC1CCCCC1` the relative growth was inactive: 0.974. With `C[C@@H]1CN([C@@H](C)CO)C(=O)c2cc(NC(=O)Cc3cn(C)c4ccccc34)ccc2O[C@H]1CN(C)CC1CCCCC1` the relative growth was inactive: 0.988. With `CO[C@H]1CN(C)C(=O)c2ccc(NS(=O)(=O)CC(F)(F)F)cc2OC[C@H](C)N(C(=O)c2ccc3c(c2)OCO3)C[C@H]1C` the relative growth was inactive: 1.03. For `Cc1ccc(S(=O)(=O)N[C@H](C(=O)NCCn2cc(CCC(=O)NO)nn2)C(C)C)cc1`, the relative growth was inactive: 1.03. `Fc1ccc(-c2nc3ccc4ccccc4c3c3c2CCC3)cc1` was tested, and the relative growth was inactive: 1.01. For `COc1ccc(NC(=O)N(C)C[C@H]2Oc3c(NC(=O)Nc4ccc(C(F)(F)F)cc4)cccc3C(=O)N([C@H](C)CO)C[C@H]2C)cc1`, the relative growth was inactive: 0.892. With `CN(C)Cc1cn(CC[C@H]2CC[C@@H](NC(=O)Cc3cccnc3)[C@@H](CO)O2)nn1` the relative growth was inactive: 1.04. With `C[C@H](CO)N1C[C@H](C)[C@@H](CN(C)CC2CCCCC2)OCCCC[C@H](C)Oc2ccc(N(C)C)cc2C1=O` the relative growth was inactive: 0.999. For `CCNC(=O)C[C@H]1C=C[C@H](NC(=O)C2CCOCC2)[C@@H](CO)O1`, the relative growth was inactive: 1. `C[C@H](CO)N1C[C@H](C)[C@H](CN(C)C(=O)CN(C)C)Oc2cc(-c3cncnc3)ccc2S1(=O)=O` was tested, and the relative growth was inactive: 0.986. `C[C@@H]1CN([C@H](C)CO)C(=O)c2cccc(NC(=O)c3ccc(-c4nccs4)cc3)c2O[C@@H]1CN(C)Cc1ccc(C(=O)O)cc1` was tested, and the relative growth was inactive: 1. In the case of `O=C(CCO[C@@H]1O[C@H](CO)[C@@H](O)[C@H](O)[C@H]1O)c1ccc(O)cc1`, the relative growth is reported as inactive: 0.993. `OC[C@H]1O[C@@H](O)[C@H](O)[C@@H](O)[C@H]1O` was tested, and the relative growth was inactive: 1.05. In the case of `C[C@@H]1CCCCO[C@H](CN(C)C(=O)NC2CCCCC2)[C@H](C)CN([C@@H](C)CO)C(=O)c2cc(NC(=O)c3ccccc3)ccc2O1`, the relative growth is reported as inactive: 1.01. In the case of `C[C@H](CO)N1C[C@H](C)[C@@H](CN(C)S(=O)(=O)c2ccccc2)Oc2ccc(NC(=O)Cn3cnnn3)cc2CC1=O`, the relative growth is reported as inactive: 0.98. `CN1CCN(C(=O)C[C@@H]2CC[C@@H]3[C@@H](COc4ccc(NC(=O)C5CCCCC5)cc4C(=O)N3C)O2)CC1` was tested, and the relative growth was inactive: 0.989. `COc1ccc(S(=O)(=O)N(C)C[C@@H]2OCCCC[C@@H](C)Oc3ccc(NC(=O)Nc4ccccc4)cc3C(=O)N([C@@H](C)CO)C[C@@H]2C)cc1` was tested, and the relative growth was inactive: 1.01. For `COCCOC(=O)N1C(=O)[C@@]2(c3cc(C#CCC(C(=O)OC)C(=O)OC)ccc31)[C@H](C(=O)Nc1nc3ccccc3s1)[C@H]1C(=O)O[C@H](c3ccccc3)[C@H](c3ccccc3)N1[C@@H]2c1ccccc1OCCO`, the relative growth was inactive: 1.02. With `Cc1c(-c2ccc(C(N)=O)c3[nH]c4cc(C(C)(C)O)ccc4c23)cccc1-n1cnc2ccccc2c1=O` the relative growth was inactive: 1.04. `COc1ccccc1CN1C(=O)c2ccccc2[C@](Cc2ccccc2I)(C(=O)NC2CC2)[C@@H]1c1ccc(CO)cc1` was tested, and the relative growth was inactive: 1.02. In the case of `C[C@H](CO)N1C[C@H](C)[C@H](CN(C)C(=O)NC2CCCCC2)Oc2c(NC(=O)C3CCOCC3)cccc2C1=O`, the relative growth is reported as inactive: 1.01. `C[C@@H]1CN([C@@H](C)CO)C(=O)c2cc(NC(=O)Nc3ccc(F)cc3)ccc2O[C@H]1CN(C)S(C)(=O)=O` was tested, and the relative growth was inactive: 1.03. In the case of `Cc1noc(C)c1S(=O)(=O)Nc1cccc2c1O[C@@H](CN(C)C(=O)NC1CCCCC1)[C@@H](C)CN([C@H](C)CO)C2=O`, the relative growth is reported as inactive: 0.984. In the case of `CC(C)NC(=O)Nc1cccc2c1O[C@@H](CN(C)C(=O)Nc1ccc3c(c1)OCO3)[C@@H](C)CN([C@@H](C)CO)C2=O`, the relative growth is reported as inactive: 0.991. For `C[C@@H]1CCCCO[C@@H](CN(C)Cc2ccc(Cl)c(Cl)c2)[C@H](C)CN([C@H](C)CO)C(=O)c2cc(NC(=O)Nc3cccc4ccccc34)ccc2O1`, the relative growth was inactive: 1.05. For `CC(C)NC(=O)N(C)C[C@@H]1Oc2ccc(NC(=O)NC3CCCCC3)cc2C(=O)N([C@@H](C)CO)C[C@@H]1C`, the relative growth was inactive: 0.992. For `CCN(CC)C(=O)C1(c2ccccc2)CC1CN.Cl` (centres undefined), the relative growth was inactive: 1. `COc1ccc(NC(=O)N(C)C[C@H]2Oc3ccc(NS(C)(=O)=O)cc3C(=O)N([C@H](C)CO)C[C@@H]2C)cc1` was tested, and the relative growth was inactive: 0.99. In the case of `C[C@@H]1CN([C@@H](C)CO)C(=O)c2cc(NC(=O)CCN3CCOCC3)ccc2O[C@H]1CN(C)S(=O)(=O)c1ccc(Cl)cc1`, the relative growth is reported as inactive: 1.02. `COc1ccc(S(=O)(=O)Nc2ccc3c(c2)C(=O)N([C@H](C)CO)C[C@H](C)[C@@H](CN(C)CC2CCCCC2)OCCCC[C@@H](C)O3)cc1` was tested, and the relative growth was inactive: 0.972. `C[C@H](CO)N1C[C@H](C)[C@@H](CN(C)C(=O)Nc2cccc3ccccc23)OCCCC[C@H](C)Oc2ccc(NS(=O)(=O)c3cccs3)cc2C1=O` was tested, and the relative growth was inactive: 0.966. In the case of `C[C@H]1CN([C@@H](C)CO)C(=O)Cc2cc(NC(=O)Nc3ccc4c(c3)OCO4)ccc2O[C@@H]1CN(C)S(C)(=O)=O`, the relative growth is reported as inactive: 0.982. With `Nc1c2c(=O)[nH]c(=O)cc-2[nH]n1-c1ccccc1` the relative growth was inactive: 0.972. With `FC(F)(F)c1nnc2n1CCNC2` the relative growth was inactive: 1.01. For `CCOP(=O)(CC(=O)O[C@H]1[C@H](OC(=O)Nc2ccccc2-c2ccccc2)[C@H](OC(=O)Nc2ccccc2-c2ccccc2)[C@@H](OC)O[C@@H]1COC(=O)NCCCCCC(=O)NO)OCC`, the relative growth was inactive: 0.993. For `C[C@H](CO)N1C[C@H](C)[C@H](CN(C)S(=O)(=O)c2cccs2)OCCCC[C@H](C)Oc2ccc(NC(=O)c3ccccc3)cc2C1=O`, the relative growth was inactive: 1.04. With `C[C@@H]1CN([C@H](C)CO)C(=O)c2cc(NC(=O)Nc3cccc4ccccc34)ccc2O[C@@H]1CN(C)C(=O)NC1CCCCC1` the relative growth was inactive: 1. With `C[C@@H]1CN([C@H](C)CO)C(=O)Cc2cc(NS(=O)(=O)c3cccs3)ccc2O[C@H]1CN(C)S(=O)(=O)c1cccs1` the relative growth was inactive: 0.991. `C[C@H]1CCCCO[C@H](CN(C)Cc2ccc(C(=O)O)cc2)[C@@H](C)CN([C@@H](C)CO)C(=O)c2cc(NC(=O)C3CCCCC3)ccc2O1` was tested, and the relative growth was inactive: 0.981. For `Cc1cccc2c1OCC[C@@H](N)C2=O`, the relative growth was inactive: 1.02. `O=C(C1=C[C@H](c2csc3ccccc23)C[C@H](OCc2ccc(CO)cc2)O1)N1CCN(Cc2ccccc2)CC1` was tested, and the relative growth was inactive: 1. For `O=C(N[C@H]1CCN(C(=O)c2cc(C(F)(F)F)cc(C(F)(F)F)c2)[C@H](Cc2ccc(Cl)cc2)C1)c1ccnc2ccccc12`, the relative growth was inactive: 1.05. `C[C@@H]1CN([C@H](C)CO)S(=O)(=O)c2ccc(C#CCN(C)C)cc2O[C@@H]1CN(C)C(=O)CN(C)C` was tested, and the relative growth was inactive: 1.02. For `CC(C)NC(=O)Nc1ccc2c(c1)C(=O)N([C@@H](C)CO)C[C@@H](C)[C@@H](CN(C)C(=O)Nc1ccc(F)cc1)OCCCC[C@@H](C)O2`, the relative growth was inactive: 0.993. In the case of `CC(C)NC(=O)N[C@H]1CCCCNC1=O`, the relative growth is reported as inactive: 0.991.
